# Some of the results follow.
# Columns and labels:
# Test in all cases: glycan array binding signal (z-score within array); higher = stronger binding
# Details in all cases: glycan notation: IUPAC condensed, linker removed
# [1] = molecular target: Neu5Ac(a2-3)Gal(b1-3)GalNAc
# Method in brief: (§1)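 The Consortium for Functional Glycomics database supplied 3228 glycan arrays, of which those lacking an available protein sequence were dropped. The binding signal, a within-array Z-score, was averaged across arrays of the same protein sequence and across linkers. Negative scores can be read as non-binding.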
# [2] = molecular target: Neu5Ac(a2-3)Gal(b1-3)GalNAc(b1-3)Gal(a1-4)Gal(b1-4)Glc
# Method in brief: as §1
# [3] = molecular target: Neu5Ac(a2-3)Gal(b1-3)GalNAc(b1-4)[Neu5Ac(a2-3)]Gal(b1-4)Glc
# Method in brief: as §1
# [4] = molecular target: Neu5Ac(a2-3)Gal(b1-3)GalNAc(b1-4)[Neu5Ac(a2-8)Neu5Ac(a2-3)]Gal(b1-4)Glc
# Method in brief: as §1
# [5] = molecular target: Neu5Ac(a2-3)Gal(b1-3)GalNAc6S
# Method in brief: as §1
# [6] = molecular target: Neu5Ac(a2-3)Gal(b1-3)GlcNAc
# Method in brief: as §1
# [7] = molecular target: Neu5Ac(a2-3)Gal(b1-3)GlcNAc(b1-2)Man
# Method in brief: as §1
# [8] = molecular target: Neu5Ac(a2-3)Gal(b1-3)GlcNAc(b1-2)Man(a1-3)[GlcNAc(b1-4)][Neu5Ac(a2-3)Gal(b1-3)GlcNAc(b1-2)Man(a1-6)]Man(b1-4)GlcNAc(b1-4)GlcNAc
# Method in brief: as §1
# [9] = molecular target: Neu5Ac(a2-3)Gal(b1-3)GlcNAc(b1-2)Man(a1-3)[Neu5Ac(a2-3)Gal(b1-3)GlcNAc(b1-2)Man(a1-6)]Man(b1-4)GlcNAc(b1-4)GlcNAc
# Method in brief: as §1
# [10] = molecular target: Neu5Ac(a2-3)Gal(b1-3)GlcNAc(b1-3)Gal(b1-3)GlcNAc
# Method in brief: as §1
# [11] = molecular target: Neu5Ac(a2-3)Gal(b1-3)GlcNAc(b1-3)Gal(b1-4)GlcNAc
# Method in brief: as §1
# [12] = molecular target: Neu5Ac(a2-3)Gal(b1-3)GlcNAc(b1-3)GalNAc
# Method in brief: as §1
# [13] = molecular target: Neu5Ac(a2-3)Gal(b1-3)GlcNAc(b1-4)Gal(b1-4)Glc
# Method in brief: as §1
# [14] = molecular target: Neu5Ac(a2-3)Gal(b1-3)GlcNAc(b1-6)GalNAc
# Method in brief: as §1
# [15] = molecular target: Neu5Ac(a2-3)Gal(b1-3)GlcNAc6S
# Method in brief: as §1
# [16] = molecular target: Neu5Ac(a2-3)Gal(b1-3)[Fuc(a1-4)]GlcNAc
# Method in brief: as §1
# [17] = molecular target: Neu5Ac(a2-3)Gal(b1-3)[Fuc(a1-4)]GlcNAc(b1-3)Gal(b1-3)[Fuc(a1-4)]GlcNAc
# Method in brief: as §1
# [18] = molecular target: Neu5Ac(a2-3)Gal(b1-3)[Fuc(a1-4)]GlcNAc(b1-3)Gal(b1-4)[Fuc(a1-3)]GlcNAc
# Method in brief: as §1
# [19] = molecular target: Neu5Ac(a2-3)Gal(b1-3)[GlcNAc(b1-6)]GalNAc
# Method in brief: as §1
# [20] = molecular target: Neu5Ac(a2-3)Gal(b1-3)[Neu5Ac(a2-6)]GalNAc
# Method in brief: as §1
# [21] = molecular target: Neu5Ac(a2-3)Gal(b1-3)[Neu5Ac(a2-6)]GlcNAc(b1-3)[Fuc(a1-3)[Gal(b1-4)]GlcNAc(b1-6)]Gal(b1-4)Glc
# Method in brief: as §1
# [22] = molecular target: Neu5Ac(a2-3)Gal(b1-3)]Neu5Ac(a2-3)Gal(b1-4)]GlcNAc
# Method in brief: as §1
# Neu5Ac(a2-3)Gal(b1-4)Glc = molecular target: Neu5Ac(a2-3)Gal(b1-4)Glc
# Method in brief: as §1
# [23] = molecular target: Neu5Ac(a2-3)Gal(b1-4)GlcNAc
# Method in brief: as §1
# [24] = molecular target: Neu5Ac(a2-3)Gal(b1-4)GlcNAc(b1-2)Man
# Method in brief: as §1
# [25] = molecular target: Neu5Ac(a2-3)Gal(b1-4)GlcNAc(b1-2)Man(a1-3)[GlcNAc(b1-4)][Neu5Ac(a2-3)Gal(b1-4)GlcNAc(b1-2)Man(a1-6)]Man(b1-4)GlcNAc(b1-4)GlcNAc
# Method in brief: as §1
# [26] = molecular target: Neu5Ac(a2-3)Gal(b1-4)GlcNAc(b1-2)Man(a1-3)[Neu5Ac(a2-3)Gal(b1-4)GlcNAc(b1-2)Man(a1-6)]Man(b1-4)GlcNAc(b1-4)GlcNAc
# Method in brief: as §1
# [27] = molecular target: Neu5Ac(a2-3)Gal(b1-4)GlcNAc(b1-2)Man(a1-3)[Neu5Ac(a2-3)Gal(b1-4)GlcNAc(b1-2)Man(a1-6)]Man(b1-4)GlcNAc(b1-4)[Fuc(a1-6)]GlcNAc
# Method in brief: as §1
# [28] = molecular target: Neu5Ac(a2-3)Gal(b1-4)GlcNAc(b1-2)Man(a1-3)[Neu5Ac(a2-6)Gal(b1-4)GlcNAc(b1-2)Man(a1-6)]Man(b1-4)GlcNAc(b1-4)GlcNAc
# Method in brief: as §1
# [29] = molecular target: Neu5Ac(a2-3)Gal(b1-4)GlcNAc(b1-2)[Neu5Ac(a2-3)Gal(b1-4)GlcNAc(b1-4)]Man(a1-3)[GlcNAc(b1-4)][Neu5Ac(a2-3)Gal(b1-4)GlcNAc(b1-2)[Neu5Ac(a2-3)Gal(b1-4)GlcNAc(b1-6)]Man(a1-6)]Man(b1-4)GlcNAc(b1-4)GlcNAc
# Method in brief: as §1
# [30] = molecular target: Neu5Ac(a2-3)Gal(b1-4)GlcNAc(b1-2)[Neu5Ac(a2-3)Gal(b1-4)GlcNAc(b1-4)]Man(a1-3)[GlcNAc(b1-4)][Neu5Ac(a2-3)Gal(b1-4)GlcNAc(b1-4)Man(a1-6)]Man(b1-4)GlcNAc(b1-4)GlcNAc
# Method in brief: as §1
# [31] = molecular target: Neu5Ac(a2-3)Gal(b1-4)GlcNAc(b1-2)[Neu5Ac(a2-3)Gal(b1-4)GlcNAc(b1-6)]Man(a1-6)[Neu5Ac(a2-3)Gal(b1-4)GlcNAc(b1-2)Man(a1-3)]Man(b1-4)GlcNAc(b1-4)GlcNAc
# Method in brief: as §1
# [32] = molecular target: Neu5Ac(a2-3)Gal(b1-4)GlcNAc(b1-2)[Neu5Ac(a2-3)Gal(b1-4)GlcNAc(b1-6)]Man(a1-6)[Neu5Ac(a2-3)Gal(b1-4)GlcNAc(b1-2)Man(a1-3)][GlcNAc(b1-4)]Man(b1-4)GlcNAc(b1-4)GlcNAc
# Method in brief: as §1
# [33] = molecular target: Neu5Ac(a2-3)Gal(b1-4)GlcNAc(b1-3)Gal
# Method in brief: as §1
# [34] = molecular target: Neu5Ac(a2-3)Gal(b1-4)GlcNAc(b1-3)Gal(b1-3)GlcNAc
# Method in brief: as §1
# [35] = molecular target: Neu5Ac(a2-3)Gal(b1-4)GlcNAc(b1-3)Gal(b1-4)GlcNAc
# Method in brief: as §1
# [36] = molecular target: Neu5Ac(a2-3)Gal(b1-4)GlcNAc(b1-3)Gal(b1-4)GlcNAc(b1-2)Man(a1-3)[Neu5Ac(a2-3)Gal(b1-4)GlcNAc(b1-3)Gal(b1-4)GlcNAc(b1-2)Man(a1-6)]Man(b1-4)GlcNAc(b1-4)GlcNAc
# Method in brief: as §1
binder,measurement,setting,value
Cohesin-mDCIR (Macaca mulatta) (protein) GLDDLDAVRIKVDTVNAKPGDTVRIPVRFSGIPSKGIANCDFVYSYDPNVLEIIEIEPGDIIVDPNPDKSFDTAVYPDRKIIVFLFAEDSGTGAYAITKDGVFATIVAKVKEGAPNGLSVIKFVEVGGFANNDLVEQKTQFFDGGVNVGDTTEPATPTTPVTTPTTTDDLDAASFQKYSQLLEKMTTKDLVHTTLECVKKNMTTEETAWSCCPKNWKPFSSNCYFISTESASWQKSEKDCARMEAHLLVINTREEQDFIFQNLQEESAYFVGLSDPEGQRHWQWVDRTPYNESSTFWHPHEPSDPDERCVVLNFRKTPKRWGWNDVHCIVHQRSVCEMMKIHLHHHHHH,glycan array binding signal (z-score),[1],-0.417
same,glycan array binding signal (z-score),[2],-0.388
same,glycan array binding signal (z-score),[3],-0.165
same,glycan array binding signal (z-score),[4],-0.441
same,glycan array binding signal (z-score),[5],2.17
same,glycan array binding signal (z-score),[6],-0.412
same,glycan array binding signal (z-score),[7],-0.283
same,glycan array binding signal (z-score),[8],-0.247
same,glycan array binding signal (z-score),[9],0.142
same,glycan array binding signal (z-score),[10],-0.423
same,glycan array binding signal (z-score),[11],-0.413
same,glycan array binding signal (z-score),[12],-0.379
same,glycan array binding signal (z-score),[13],-0.419
same,glycan array binding signal (z-score),[14],0.849
same,glycan array binding signal (z-score),[15],-0.08
same,glycan array binding signal (z-score),[16],0.069
same,glycan array binding signal (z-score),[17],-0.418
same,glycan array binding signal (z-score),[18],-0.421
same,glycan array binding signal (z-score),[19],-0.358
same,glycan array binding signal (z-score),[20],-0.023
same,glycan array binding signal (z-score),[21],-0.45
same,glycan array binding signal (z-score),[22],0.025
same,glycan array binding signal (z-score),Neu5Ac(a2-3)Gal(b1-4)Glc,-0.444
same,glycan array binding signal (z-score),[23],-0.267
same,glycan array binding signal (z-score),[24],0.033
same,glycan array binding signal (z-score),[25],-0.429
same,glycan array binding signal (z-score),[26],-0.286
same,glycan array binding signal (z-score),[27],-0.364
same,glycan array binding signal (z-score),[28],-0.238
same,glycan array binding signal (z-score),[29],-0.171
same,glycan array binding signal (z-score),[30],-0.234
same,glycan array binding signal (z-score),[31],-0.05
same,glycan array binding signal (z-score),[32],-0.45
same,glycan array binding signal (z-score),[33],-0.377
same,glycan array binding signal (z-score),[34],-0.424
same,glycan array binding signal (z-score),[35],-0.175
same,glycan array binding signal (z-score),[36],-0.33

# Source: the supplement of paper PMC8728848
